# Source: the supplement of paper PMC10338343
# ± gives the standard deviation. This is a selection; strong and weak results do not stand in their true shares.
# Test system: MIWI (PIWIL1) piRISC loaded with piRNA #1 (30 nt)
# Experiment: pre-steady-state target cleavage rate (min^-1); MIWI and MILI are mouse PIWI proteins and EfPiwi is from a freshwater sponge; tags in brackets are library labels; higher = faster piRNA-guided slicing of the target
# Conditions: guide: piRNA #1 5'p-UGAGGUAGUAGGUUGUAUAGUAUCCAGAGG; auxiliary factor: 500 nM mouse GTSF1
# Method in brief: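 Cleave-'n-Seq reactions paired 0.1 nM transcribed, DNA-blocked target RNA library with 1 nM active affinity-purified piRISC holding one synthetic guide, plus or minus 500 nM GTSF1 partner protein, in HEPES–potassium acetate buffer at 33 °C for 0–8 or 0–960 min. After sequencing of uncleaved targets and normalisation to depth and weakly complementary targets, the pre-steady-state cleavage rate was taken from a burst-and-steady-state fit. Three trials were pooled, and k3 was capped at 0.0001 min^-1.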
row,Sequence,pre-steady-state target cleavage rate
1,GGAGACCUAUCUAUACAUCCUACUUCCUCA,0.0462 ± 0.011
2,GGAGACCAUACUAUUCAAGCUACUACCUCA,0.656 ± 0.045
3,CCUCUGGAUACUAUACAACCUACUACCCA,0.602 ± 0.062
4,GGAGUGGAUACUAUACAACCUACUACUCUCA,0.854 ± 0.053
5,GCUCUGGAUACUAUACAACCUACUACGACA,1.34 ± 0.11
6,GGAGACCUAUCUAUUCAACCUACUACGUCA,0.247 ± 0.041
7,GGAGACCUAUGAAUACAAUCCUACUACCUCA,< 0.0001
8,GGAGACCUAUCUAUAGAACCAACUACCUCA,0.00622 ± 0.0013
9,GGAGACCUAACUAUACAACCUAGUACCUCA,0.299 ± 0.051
10,GGAGACCUAUCGAUACAACCUACUACCUCA,0.147 ± 0.026
11,CCUCUGGAUACUCAUACAACCUACUACCUCA,1.54 ± 0.083
12,CCUCAGCAUACUAUACAACCUACUACCUCA,2.12 ± 0.13
13,GCUCUGGAUACUAUACAACCUACUACCUGA,1.04 ± 0.14
14,GGAGACCAUACUAUACACCCUACUACCUCA,1.46 ± 0.08
15,GGAGACCUAUCUAUACAACCUGCUACCUCA,0.22 ± 0.022
16,GGACUGGAUACUAACAACCUACUACCUCA,1.52 ± 0.14
17,GGAGACCUUACUAUACAACCAACUACCACA,0.0729 ± 0.0098
18,GGAGAGCAUUCUAUACAACCUACUACCUCA,1.42 ± 0.1
19,CGUCUGGAUACUAUACAACCUACUACCUCA,1.78 ± 0.12
20,GGAGUGGAUUCUAUACAUCCUACUACCUCA,1.33 ± 0.074

row,Sequence,pre-steady-state target cleavage rate
1,GGAGUGGAUACUAUACAACCUUACUACCUCA,0.00348 ± 0.0026
2,GGAGAGGAUACUAUAGAUCCUACUACCUCA,0.922 ± 0.055
3,GGACUGGAUACUUUACAACCUACUAGCUCA,0.00803 ± 0.0022
4,GGAGACCUAUCUAUACAACCUACUACCUAA,0.844 ± 0.065
5,GCUCAGGAUACUAUACAACCUUCUACCUCA,0.616 ± 0.038
6,GGAGACCUAACAUACAACCUACUACCUCA,0.0132 ± 0.0087
7,GGAGACCAUAGUAUACAACCAACUACCUCA,0.0297 ± 0.006
8,GGAGACGAUACUAUAAACCUACUACCUCA,0.883 ± 0.11
9,GGAGACCUAUGAUUACAACCUUGAUGGAGA [g10:g17:cont:t1A],< 0.0001
10,GGAGACCUUACAAUACAACGUACUACCUCA,0.0183 ± 0.0052
11,GCUCUGGAUACUUUACAACCUUCUACCUCA,0.604 ± 0.029
12,GGAGUGGAUACAAUACAACCUACUUCCUCA,0.0692 ± 0.02
13,CCUCUGGAUUCUAUACUACCUACUACCUCA,1.06 ± 0.062
14,GGAGUGGAUACUAUACAAGCUACUACCUCA,0.974 ± 0.04
15,GGAGUGGAUACUAUUCAACCAACUACCUCA,0.106 ± 0.011
16,GGAGACCUAUGAUAUGAACCACUACCUCA,< 0.0001
17,GGACUCGAUACUAUACAACCUACUAGCUCA,0.0879 ± 0.017
18,GGAGAGGAUUCUAUACAACCUAGUACCUCA,0.372 ± 0.044
19,GGAGACCUUACUAUACAACCAACUACCUGA,0.0543 ± 0.0098
